{
  "source": "PubChem BioAssay AID686971",
  "about": "(National Center for Advancing Translational Sciences (NCATS), 2013)",
  "note": "In all, about 360,000 compounds went through this assay and about 7,500 (2.1%) were called active. The inconclusive results got no clear call from the source; some entries with a clear call stand among them for comparison. Calls follow the shape of the dose curve; as a rule, active = well fitted cell-killing curve with a large enough effect; inconclusive = small, poorly fitted or top-dose-only effect, or effect the other way, or another doubt; inactive = no such curve, though single readings can be large or run the other way. No potency is given beside an inconclusive call; the fits are too rough. Potency is read from the fitted curve at half-maximal effect; tags tell the direction and shape of the fitted curve.",
  "data": [
    {"experiment": "qHTS for induction of synthetic lethality in tumor cells producing 2HG: qHTS for the HT-1080-IDH1KD cell line;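 as to activity, negative = toxicity: 0% = DMSO wells and -100% = cell-free medium wells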", "settings": "HT-1080 IDH1 knockdown viability, ATP luminescence, 48 h; activity, negative = toxicity: at 46.1 µM (top of the series) unless noted", "procedure,_shortened": "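Knockdown cells (IDH1KD HT-1080) received compounds 2 h after plating at 750 cells/well and were kept 48 h at 37 °C in 5% FBS RPMI. A CellTiter-Glo luminescence read gave % activity for curve fitting.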", "values": [
      {"smiles": "CC1CCCC(C)N1/N=C/c1c[nH]c2ccc(Br)cc12", "note": "(stereo not drawn)", "Potency": "inconclusive [cytotoxic, single point]"},
      {"smiles": "Fc1ccc(CCNCc2ccccc2Cl)cc1", "activity, negative = toxicity": "inactive: -5.73%"},
      {"smiles": "COc1ccc(C(=O)C2CCCN(C3CSCCSC3)C2)c(C)c1", "note": "(stereo not drawn)", "activity, negative = toxicity": "inactive: -11.3%"},
      {"smiles": "CN(Cc1cccc(-c2ccncc2)c1)C(=O)Oc1ccc([N+](=O)[O-])cc1", "Potency": "inconclusive [cytotoxic, partial curve]"},
      {"smiles": "COc1ccc(C(O)(c2ccccc2)c2ccncc2)cc1", "note": "(stereo not drawn)", "Potency": "inconclusive [cytotoxic, single point]"},
      {"smiles": "O=C(c1ccco1)N1CCN(c2nc(C3CC3)nc3sc4c(c23)CCCC4)CC1", "Potency": "inconclusive [cytotoxic, single point]"},
      {"smiles": "Cc1ccsc1C(=O)C1CCCN(Cc2cccn2-c2ccccn2)C1", "note": "(stereo not drawn)", "Potency": "inconclusive [cytotoxic, single point]"},
      {"smiles": "CN(C)CCOC(=O)c1cn(Cc2ccccc2)c2ccccc12", "Potency": "inconclusive [cytotoxic, single point]"},
      {"smiles": "C=CCN1C(=O)/C(=C/c2cccs2)C(=O)NC1=S", "Potency": "inconclusive [cytotoxic, single point]"},
      {"smiles": "O=C1CC(=O)N(Cc2ccccc2)C(=O)N1Cc1ccccc1", "activity, negative = toxicity": "inactive: 2.15%"},
      {"smiles": "CC(NC1CCCCC1)C(O)C12CC3CC(CC(C3)C1)C2", "note": "(stereo not drawn)", "Potency": "inconclusive [cytotoxic, partial curve]"},
      {"smiles": "CCOC(=O)[C@]12Cc3cc(C)ccc3[C@H]1N(C(C)C)C(=O)c1ccccc12", "Potency": "active: 25.9 µM"},
      {"smiles": "O=c1[nH]c2ccccc2n1C1CCN(CCCC(c2ccc(F)cc2)c2ccc(F)cc2)CC1", "Potency": "active: 18.4 µM"},
      {"smiles": "O=C1C(Cc2cnc[nH]2)NC(=S)N1c1ccccc1", "note": "(stereo not drawn)", "activity, negative = toxicity": "inactive: 7.82%"},
      {"smiles": "Brc1ccc2c(c1)C(OC1CN3CCC1CC3)c1ccccc1CS2", "note": "(stereo not drawn)", "Potency": "inconclusive [cytotoxic, single point]"},
      {"smiles": "CCSc1cc(C2C(C#N)=C(N)Oc3n[nH]c(C)c32)c(C)o1", "note": "(stereo not drawn)", "Potency": "inconclusive [cytotoxic, single point]"},
      {"smiles": "O=C1NC(=O)N(Cc2ccc(F)cc2)C(=O)/C1=C\\C=C\\c1ccco1", "Potency": "inconclusive [cytotoxic, single point]"},
      {"smiles": "CN1C[C@H]2CON(C)[C@H]2C[C@H]1c1cccc(Br)c1", "activity, negative = toxicity": "inactive: 3.64%"},
      {"smiles": "COc1ccc(-n2cnc3cc(C(=O)N4CCC5(CC4)OCCO5)ccc32)cc1", "Potency": "active: 16.4 µM"},
      {"smiles": "N#CC(C#N)=NNc1ccc([N+](=O)[O-])cc1", "Potency": "active: 16.4 µM"},
      {"smiles": "O=C1NC(=O)N(c2cccc(Br)c2)C(=O)/C1=C/c1ccsc1", "Potency": "active: 23.1 µM"},
      {"smiles": "CC1CCCCN1C(=O)Cn1cc(C=C2C(=O)N(C)C(=O)N(C)C2=O)c2ccccc21", "note": "(stereo not drawn)", "activity, negative = toxicity": "inactive: -8.09%"},
      {"smiles": "CCOc1ccc(-c2c(C)n(-c3ccc(OCC)cc3)c3[n+]2CCCCC3)cc1", "Potency": "inconclusive [cytotoxic, full curve, poor fit]"},
      {"smiles": "O=C1NC(=O)N(CCc2ccc(F)cc2)C(=O)/C1=C/C=C/c1ccccc1", "Potency": "inconclusive [cytotoxic, single point]"},
      {"smiles": "Cc1cccc(C#N)c1", "activity, negative = toxicity": "inactive: 1.23%"},
      {"smiles": "CCCCCCCCn1sccc1=O", "Potency": "active: 8.2 µM"},
      {"smiles": "COC1C(O)C(C)OC(OC2C(Oc3cccc4c(O)c5c(=O)oc6ccc(C)c7c(=O)oc(c34)c5c67)OC(C)C(O)C2O)C1O", "note": "(stereo not drawn)", "Potency": "inconclusive [cytotoxic, partial curve]"},
      {"smiles": "COc1ccc(N2C(=O)/C(=C/c3ccc(OC)c(OC)c3)C(=O)NC2=S)cc1", "activity, negative = toxicity": "inactive: 2.8%"},
      {"smiles": "C[C@]12CCC3C(CC[C@H]4C[C@@H](O)CC[C@]34C)C1C[C@@H](N)[C@@H]2O", "note": "(stereo partly drawn)", "activity, negative = toxicity": "inactive: -2%"},
      {"smiles": "O=P(Oc1ccccc1)(Oc1ccccc1)N1CCN(c2ccc(F)cc2)CC1", "Potency": "inconclusive [cytotoxic, single point]"},
      {"smiles": "C=C1C(O)[C@@H]2O[C@]3(CC[C@H](/C=C/C(C)[C@@H]4CC(C)=CC5(O[C@H](C[C@@](C)(O)C(=O)O)CCC5O)O4)O3)CC[C@H]2O[C@@H]1C(O)CC(C)[C@H]1OC2(CCCCO2)CCC1C", "note": "(stereo partly drawn)", "Potency": "active: 0.0082 µM"},
      {"smiles": "C[C@@H]1COc2cccc(N3CCN(C)CC3)c2S(=O)(=O)N1", "activity, negative = toxicity": "inactive: 8.95%"},
      {"smiles": "CCCCCCn1c(O)c(C=Nc2ccccc2N2CCOCC2)c(=O)[nH]c1=S", "activity, negative = toxicity": "inactive: 3.97%"},
      {"smiles": "COC(COC(N)=O)C1=C(N2CC2)C(=O)C(C)=C(N2CC2)C1=O", "note": "(stereo not drawn)", "Potency": "active: 3.26 µM"},
      {"smiles": "O=C1NC(=O)C(CCc2ccncc2)(Cc2ccc3c(c2)OCO3)C(=O)N1CCc1ccccc1", "note": "(stereo not drawn)", "activity, negative = toxicity": "inconclusive: -23.6% [cytotoxic]"},
      {"smiles": "N#Cc1ccc(NC(=O)CN2CCCCCC2)cc1Cl", "Potency": "inconclusive [cytotoxic, partial curve, poor fit]"},
      {"smiles": "O=C(C1CC(c2ccccc2O)=NO1)N1CCC2(CC1)OCCO2", "note": "(stereo not drawn)", "Potency": "inconclusive [cytotoxic, single point]"},
      {"smiles": "CN(Cc1cccc(-c2ccncc2)c1)C(=O)Oc1ccccc1Cc1ccccc1", "Potency": "active: 13 µM"},
      {"smiles": "COC(=O)C1=C(C(=O)OC)SC2(S1)C(C(=O)OC)=C(C(=O)OC)Sc1c2ssc1=O", "Potency": "active: 1.16 µM"},
      {"smiles": "CCCCCN=C(N)N/N=C/c1c[nH]c2ccc(OC)cc12", "Potency": "active: 5.8 µM"},
      {"smiles": "CC(C)(C)c1ccc(C(=O)Nc2ccc(NC(=O)c3ccco3)cc2)cc1", "Potency": "active: 10 µM"},
      {"smiles": "O=C(NC1C=CS(=O)(=O)C1)c1sc2ccccc2c1Cl", "note": "(stereo not drawn)", "Potency": "active: 11.2 µM"},
      {"smiles": "Fc1ccccc1CN1Cc2ccccc2-n2nncc2C1", "activity, negative = toxicity": "inactive: -0.594%"},
      {"smiles": "Cn1c(=O)oc2cc(NC(=O)CCl)ccc21", "Potency": "inconclusive [cytotoxic, single point]"},
      {"smiles": "FC(F)(F)c1ccc2c(c1)N(CCCN1CCN(CCCl)CC1)c1ccccc1S2", "Potency": "inconclusive [cytotoxic, partial curve]"},
      {"smiles": "COC(=O)c1sc(S(=O)(=O)N2CCN(c3ccc(OC)cc3)CC2)c(C(=O)OC)c1C", "Potency": "inconclusive [cytotoxic, single point]"},
      {"smiles": "CC1CCCC(NC(=O)COC(=O)c2cn(C)c3ccccc23)C1C", "note": "(stereo not drawn)", "activity, negative = toxicity": "inactive: 1.28%"},
      {"smiles": "O=P(c1ccccc1)(c1ccccc1)N(c1ccccc1)c1ccccc1", "Potency": "inconclusive [cytotoxic, partial curve]"}
    ]}
  ]
}
